Assay results reported in PubChem BioAssay AID686979 (National Center for Advancing Translational Sciences (NCATS), 2013).
“And” between values parts separate entries of the source, which are not always exact repeats. Identical values can stand only once. The whole screen tested about 420,000 compounds, of which about 50,000 (12%) were called active. Inconclusive results, whose numbers are uncertain, are shown with a selection of clear calls. The call rests on the fitted dose curve; in most records, active means well fitted inhibition curve with a large enough effect; inconclusive means small, poorly fitted or top-dose-only effect; inactive means flat fitted curve, though single readings scatter. Potencies of inconclusive entries are doubtful fits and often do not repeat.

Experiment: qHTS for Inhibitors of human tyrosyl-DNA phosphodiesterase 1 (TDP1): qHTS in cells in presence of CPT; further: nearly all actives have a fitted effect of over 55% in size
Settings: chicken DT40 Tdp1-/-;hTDP1 cells + 20 nM CPT, ATP luminescence, 48 h; activity change, negative = growth inhibition: at 46.2 µM (top of the series) unless noted
Summary of the method: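 Chicken DT40 Tdp1-/- cells stably complemented with human TDP1 were seeded at 400 cells/well in medium containing 20 nM camptothecin, exposed to pin-transferred compounds, and grown at 37 °C for at least 48 hr. Viability was read as ATP luminescence.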
On the % scale 0 is the no-effect control and ±100 the full control effect; potency means the concentration at half of the fitted maximal effect; tags describe the fitted curve by direction and shape.

SMILES	Potency	activity change, negative = growth inhibition
Fc1ccc(Nc2nc(SCc3ccccc3Cl)nc3ccccc23)cc1	inconclusive: 18.4 µM [inhibitor, single point]	–
Oc1ccc(N2CCN(C(c3ccc(Cl)cc3)c3nnnn3Cc3ccc(F)cc3)CC2)cc1 (stereo unspecified)	inconclusive: 25.1 µM [inhibitor, single point]	–
O=C(CCCCC(=O)Sc1ccccc1)Sc1ccccc1	inconclusive: 25.9 µM [inhibitor, single point]	–
Cc1ccc(OCC(=O)N/N=C\c2cn(Cc3ccccc3)c3ccccc23)cc1C	inconclusive: 29.1 µM [inhibitor, single point]	–
Cc1cc(Cl)ccc1OCC(=O)NNC(=O)C1CCN(c2ncnc3sc(C)c(C)c23)CC1	inconclusive: 20.6 µM [inhibitor, single point]	–
O=C(c1ccc(-c2ccccc2Cl)o1)N1CCCCCCC1	inconclusive: 20.6 µM [inhibitor, single point]	–
CCOC(=O)C1CCCN(S(=O)(=O)c2cc3[nH]c(=O)c(=O)[nH]c3cc2C)C1 (stereo unspecified)	inconclusive: 3.26 µM [inhibitor, single point]	–
Cn1cc(CNC(=O)c2cc(COc3ccc4c(c3)CCCC4)on2)cn1	inconclusive: 16.4 µM [inhibitor, partial curve]	–
Cc1ccccc1-n1c(-c2ccc(Cl)cc2)cnc1SCC(=O)NC1CCS(=O)(=O)C1 (stereo unspecified)	inconclusive: 20.6 µM [inhibitor, single point]	–
Cc1cccc(N2CCN(C(c3ccccc3)c3nnc(-c4ccccc4F)o3)CC2)c1C (stereo unspecified)	active: 14.6 µM	–
Cc1cc(OCC(=O)NC(Cc2ccc(Cl)cc2)C(=O)O)c2c(C)c(C)c(=O)oc2c1 (stereo unspecified)	inconclusive: 14.6 µM [inhibitor, partial curve, poor fit]	–
COc1ccccc1NCC(=O)N/N=C(\C)c1cccs1	inconclusive: 23.1 µM [inhibitor, partial curve]	–
O=C(c1ccc(Cl)c(Cl)c1)N1CCC(=O)N(C(COCc2cccc(Cl)c2)Cc2ccccc2)CC1 (stereo unspecified)	inconclusive: 23.1 µM [inhibitor, single point]	–
O=C(c1cc2ccccc2o1)N1CCN(S(=O)(=O)c2ccc(Cl)s2)CC1	active: 18.4 µM	–
Cc1csc2nc(COC(=O)CNC(=O)c3ccc(F)cc3)cc(=O)n12	–	inactive: 4.01%
COCCn1c(=O)[nH]c2cc(C(=O)N3CCN(c4cc(C)ccc4C)CC3)ccc2c1=O	inconclusive: 23.1 µM [inhibitor, single point]	–
Cc1[nH]n(-c2ccccc2)c(=O)c1/C=N\NC(=O)C1COc2ccccc2O1 (stereo unspecified)	active: 3.26 µM	–
COc1ccc(CSc2nc3ccncc3n2CC(=O)Nc2cc(C)cc(C)c2)cc1	inconclusive: 29.1 µM [inhibitor, single point]	–
COc1cc(OC)c2c(-c3ccccc3)cc(=O)oc2c1C(CC(=O)N1CCN(c2ccccc2)CC1)c1ccc(N(C)C)cc1 (stereo unspecified)	inconclusive: 29.1 µM [inhibitor, single point]	–
CC(NC(=O)c1ccccc1)C(=O)OCn1nnc2ccccc2c1=O (stereo unspecified)	active: 25.9 µM	–
NC(=O)C1CCN(C(=O)c2ccc3c(c2)N(Cc2cccc(Cl)c2)C(=O)c2ccccc2S3=O)CC1 (stereo unspecified)	–	inactive: -5.41%
COCCN1C(=O)C(=O)/C(=C(/O)c2ccc(S(=O)(=O)N3CCCCC3)cc2)C1c1ccc(OC)c(OC)c1 (stereo unspecified)	–	inactive: 5.68%

SMILES	Potency	activity change, negative = growth inhibition
C/C(=N/NS(=O)(=O)c1ccc(C)cc1)c1c(O)c2ccccc2oc1=O	inconclusive: 23.1 µM [inhibitor, single point]	–
CCOC(=O)CCC(NC(=O)c1ccc(CNc2nc3cc(C(F)(F)F)ccc3nc2C(=O)OCC)cc1)C(=O)OCC (stereo unspecified)	–	inactive: -2.32%
Cc1ccc(C(=O)NC(=C(Cl)Cl)S(=O)(=O)c2ccccc2)cc1	inconclusive: 16.4 µM [inhibitor, single point]	–
COCCN(C(=O)c1ccc(OC2CCN(S(=O)(=O)N(C)C)CC2)cc1)C(C)C	inconclusive: 20.6 µM [inhibitor, single point]	–
CCOC(=O)C1=C(C)NC(=S)NC1c1ccc(OCC(=O)N2CCCCCC2)cc1 (stereo unspecified)	–	inconclusive: 6.7% [inhibitor]
Cc1cc(C(=O)NC2CCCc3c2cnn3-c2ccc(C)c(C)c2)no1 (stereo unspecified)	active: 14.6 µM	–
CCOC(=O)C1CCCN(c2nc3ccccc3nc2C(C#N)C(=O)NCc2ccccc2)C1 (stereo unspecified)	inconclusive: 29.1 µM [inhibitor, single point]	–
COc1ccccc1CCNC(=O)C(=O)Nc1cc2c3c(c1)CC(=O)N3CCC2	inconclusive: 29.1 µM [inhibitor, single point]	–
Cc1ccc(C)c(OCCC(=O)OCC(=O)Nc2cc(S(=O)(=O)N3CCOCC3)ccc2C)c1	–	inactive: -6.79%
Cc1ccsc1-c1nc(-c2ccccc2)c(-c2ccccc2)[nH]1	inconclusive: 29.1 µM [inhibitor, single point]	–
Cc1noc(C)c1COc1ccc(C(=O)OC(C)C(=O)Nc2ccc(S(=O)(=O)N3CCOCC3)cc2)cc1 (stereo unspecified)	inconclusive: 18.4 µM [inhibitor, single point]	–
O=C(CC1C(=O)NCCN1Cc1ccccc1)NCCC1=CCCCC1 (stereo unspecified)	–	inactive: -11.3%
Cc1ccc(CNC(=O)c2ccccc2SCC(=O)NCC2CCCCC2)cc1	inconclusive: 29.1 µM [inhibitor, single point]	–
CCOc1ccccc1NC(=O)C1CCC(CNS(=O)(=O)c2ccc3c(c2)CCCC(=O)N3)CC1 (stereo unspecified)	inconclusive: 18.4 µM [inhibitor, single point]	–
CC(C)c1ccc(CNc2c([N+](=O)[O-])c(=O)oc3ccccc23)cc1	inconclusive: 29.1 µM [inhibitor, single point]	–
COc1cc(/C=C(/C#N)C(=O)c2c(C)[nH]c3ccccc23)ccc1OCC#N	inconclusive: 23.1 µM [inhibitor, single point]	–
Cc1c(Cl)ccc2sc(NC(=O)c3ccco3)nc12	inconclusive: 29.1 µM [inhibitor, single point]	–
Cn1cccc1/C=N/NC(=O)Cc1cccc2ccccc12	inconclusive: 11.6 µM [inhibitor, partial curve, poor fit]	–
Cc1ccc(C)c(NC(=O)CN(C)S(=O)(=O)c2cccc3cccnc23)c1	inconclusive: 25.9 µM [inhibitor, single point] and inconclusive: 20.6 µM [inhibitor, single point]	–
Cc1ccc(Cl)cc1N1CCN(CCCNC(=O)Cn2ncc3c([nH]c4ccccc43)c2=O)CC1	active: 14.6 µM	–
Cc1ccc(S(=O)(=O)N(Cc2cccc(C)c2)C(=O)N2CCN(C)CC2)cc1	–	inactive: 17.7%
Cc1ccc(C)n1-c1ccc(-c2nnc3n2CCCCC3)s1	inconclusive: 11.6 µM [inhibitor, partial curve, poor fit]	–

SMILES	Potency	activity change, negative = growth inhibition
Cc1ccc(C(=O)Nc2ccccc2C(=O)OCc2cc(=O)n3nc(C(C)C)sc3n2)cc1	inconclusive: 18.4 µM [inhibitor, single point]	–
O=C(CCl)c1ccc2c(c1)CCCC2	active: 0.891 µM	–
COc1ccc(CC(=O)NCCS(=O)(=O)N2CCN(c3ccccc3F)CC2)cc1OC	inconclusive: 29.1 µM [inhibitor, single point]	–
O=C(O)c1cc(S(=O)(=O)NCCOc2ccccc2)ccc1Cl	–	inactive: -2.62%
CC1CCc2c(sc(NC(=O)CSc3nnc(-c4ccccc4)o3)c2C#N)C1 (stereo unspecified)	inconclusive: 5.8 µM [inhibitor, full curve]	–
COC(=O)c1cnc(Oc2ccc(NC(=O)NC(=O)c3c(F)cccc3Cl)cc2)cc1C(F)(F)F	active: 3.26 µM	–
O=C(CSc1ccccc1F)Nc1ccc2c(c1)OCO2	–	inactive: 3.49%
COc1ccccc1N1CCN(C(CNS(=O)(=O)c2ccc(C)cc2)c2cccnc2)CC1 (stereo unspecified)	inconclusive: 5.17 µM [inhibitor, partial curve]	–
O=C(CSc1ncccn1)Nc1cc(Cl)ccc1[N+](=O)[O-]	–	inactive: -1.45%
Cc1cccc2sc(NC(=O)C3CCN(S(=O)(=O)c4cc([N+](=O)[O-])ccc4Cl)CC3)nc12	active: 18.4 µM	–
COc1ccc(Nc2ncnc3c2cnn3Cc2ccccc2)cc1OC	inconclusive: 23.1 µM [inhibitor, partial curve]	–
CC[C@@]1(C(=O)OC)N[C@H](CN(C)S(=O)(=O)c2ccc(OC(F)(F)F)cc2)[C@@H]2C(=O)N(C)C(=O)[C@@H]21	–	inactive: -29.3%
O=C1c2ccccc2C(=O)C1c1cc2ccccc2cn1	active: 1.78 µM	–
Cc1ccc(OCc2cc(C(=O)N(C)Cc3cnn(-c4ccccc4C)c3)no2)cn1	active: 11.6 µM	–
CCOC(=O)c1c(NC(=O)CN2CCCCC2)sc2c1CCN(C(=O)OCC)C2	inconclusive: 20.6 µM [inhibitor, single point]	–
Cc1ccnc(Nc2nc(-c3ccc(O)cc3O)cs2)c1	inconclusive: 20.6 µM [inhibitor, single point]	–
Cc1ccccc1OCC(O)Cn1c(N2CCCCC2)nc2c1c(=O)[nH]c(=O)n2C (stereo unspecified)	inconclusive: 20.6 µM [inhibitor, single point]	–
O=C(Nc1ccncc1)Nc1ccc(F)c(Cl)c1	active: 16.4 µM	–
COc1ccc(NC(=S)Nc2cc(C)ccn2)c(OC)c1	inconclusive: 29.1 µM [inhibitor, single point]	–
Cc1nn(-c2ccccc2)c(C)c1NC(=O)COC(=O)c1ccccc1OC(F)F	–	inactive: -0.0205%
CCOc1ccc(CCNC(=O)c2cccc(Nc3nc4ccccc4nc3-n3nc(C)cc3C)c2)cc1OCC	–	inactive: -17.1%
CCOC(=O)c1c(-c2ccc(C)o2)csc1NC(=O)CN1CCC(C(N)=O)CC1	inconclusive: 29.1 µM [inhibitor, single point]	–
